Measured values as given in PubChem BioAssay (Tox21).
Values joined by “and” are separate entries in the source; they are usually repeats but may differ in a detail not shown here. Equal entries are not always repeated. The shares of active, inactive and inconclusive entries below differ from those in the screen. For some of these results: Where the call is inconclusive, the potency comes from a doubtful curve fit. A structure can be active in one record and inactive in another. Active and inactive are the calls of the source. Unless noted, calls come from the whole dose curve; as a rule, active = well fitted curve in the direction sought with a large enough effect in the repeat runs; inconclusive = weak or mixed curves; inactive = no such curve, though single readings can be large; an effect the other way counts as inactive or inconclusive.

Assays:
[1] = qHTS assay to identify small molecule antagonists of the peroxisome proliferator-activated receptor gamma (PPARg) signaling pathway - cell viability counter screen (AID 743194); settings: PPARg-bla HEK293H viability, CellTiter-Glo luminescence, 17 h; Potency: co-treated with 50 nM rosiglitazone unless noted; activity change, negative = cytotoxicity: at 62.6 µM (top of the series), co-treated with 50 nM rosiglitazone unless noted; note: nearly all actives have a fitted effect of over 55% in size; note: potency is the fitted concentration of half-maximal effect
In short: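 PPARg-UAS-bla HEK293H cells were plated, rested 5 h at 37 C, then treated with compounds plus rosiglitazone (50 nM final) for 17 h at 37 C; viability was then read by CellTiter-Glo luminescence after 30 min at room temperature.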

[2] = molecular target: Vitamin D3 receptor (Homo sapiens) (UniProt P11473); experiment: qHTS assay to identify small molecule antagonists of the vitamin D receptor (VDR) signaling pathway (AID 743223; active = well fitted inhibition curve with a large enough effect in the signal ratio in the repeat runs, not every such curve was filed as active; inconclusive = weak or mixed curves, or effect the other way; inactive = no such curve, though single readings can be large or run the other way; the % refers to the signal ratio; note: potency is the fitted concentration of half-maximal effect); settings: VDR-UAS-bla HEK293T, beta-lactamase FRET ratio, 16 h; activity change, negative = inhibition: at 61 µM (top of the series) unless noted
In short: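 VDR-bla cells were plated, incubated 4 h at 37C, then given compound and 1alpha,25-dihydroxyvitamin D3 (3 nM final). After 16 h at 37C, LiveBLAzer B/G FRET substrate was added for 2 h at room temperature and fluorescence read.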

[3] = qHTS assay to identify small molecule agonists of the NFkB signaling pathway - cell viability counter screen (AID 1159515; calls by dose curve; note: nearly all actives have a fitted effect of over 55% in size; note: potency is the fitted concentration of half-maximal effect)
In short: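 NFkB-bla ME-180 cells, 2,000/well, plated overnight at 37 C; compound added for 5 hr at 37 C. Viability read in the same wells as the bla reporter, by CellTiter-Glo luminescence after 30 min at room temperature.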

[4] = qHTS assay for small molecule agonists of the antioxidant response element (ARE) signaling pathway (AID 743202; active = well fitted activation curve with a large enough effect in the signal ratio in the repeat runs, not every such curve was filed as active; inconclusive = weak or mixed curves, or effect the other way; inactive = no such curve, though single readings can be large or run the other way; the % refers to the signal ratio; note: potency is the fitted concentration of half-maximal effect); settings: HepG2 ARE-bla reporter, beta-lactamase FRET, 16 h; activation: at 73.3 µM (top of the series) unless noted
In short: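 Read-out: LiveBLAzer B/G FRET substrate fluorescence after 2 h at room temperature, following 16 h compound treatment at 37 C of HepG2 cells carrying an ARE-driven beta-lactamase reporter.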

[5] = molecular target: Peroxisome proliferator-activated receptor gamma (Homo sapiens) (UniProt P37231); experiment: qHTS assay to identify small molecule antagonists of the peroxisome proliferator-activated receptor gamma (PPARg) signaling pathway (AID 743191; calls by dose curve; note: % is set by controls: 0 for no effect and ±100 for the full control effect; nearly all actives have a fitted effect of over 30% in size); settings: HEK293H PPARg-UAS-bla, beta-lactamase ratio, antagonist, 17 h; ratio activity, negative = inhibition: at 62.6 µM (top of the series) unless noted
In short: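 GeneBLAzer PPARg UAS-bla HEK293H cells carrying a UAS-driven beta-lactamase reporter were plated at 3000 cells/well, preincubated 5 h at 37C, then given compound for 17 h at 37C; LiveBLAzer B/G FRET substrate was read after 1 h at room temperature.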

[6] = qHTS assay to identify small molecule antagonists of the vitamin D receptor (VDR) signaling pathway - cell viability counter screen (AID 743225); settings: VDR-bla HEK293T viability, CellTiter-Glo luminescence, 16 h; viability change, negative = cytotoxic: at 61 µM (top of the series) unless noted; note: nearly all actives have a fitted effect of over 50% in size; note: potency is the fitted concentration of half-maximal effect
In short: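 VDR-bla HEK 293T cells, 4 h pre-incubation at 37C, then compound plus 1-alpha,25-dihydroxyvitamin D3 (3 nM final) for 16 h. After the beta-lactamase FRET read, CellTiter-Glo was added to the same wells; luminescence after 30 min at room temperature.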

[7] = qHTS assay for small molecule activators of the heat shock response signaling pathway - cell viability counter screen (AID 743209); settings: HSE-bla HeLa viability, CellTiter-Glo luminescence, 5 h; activity change, negative = cytotoxicity: at 62.6 µM (top of the series) unless noted; note: potency is the fitted concentration of half-maximal effect; nearly all actives have a fitted effect of over 50% in size
In short: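 HSE-bla HeLa cells plated overnight, then exposed to Tox21 compounds (23 nL in DMSO) for 5 h at 37 C. After the bla reporter read, CellTiter-Glo was added in the same wells and luminescence read after 30 min at room temperature.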

[8] = qHTS assay for small molecule activators of the heat shock response signaling pathway (AID 743210; active = well fitted activation curve with a large enough effect in the signal ratio in the repeat runs, with a control signal flat, not every such curve was filed as active; inconclusive = weak or mixed curves; the % refers to the signal ratio; note: potency is the fitted concentration of half-maximal effect); settings: HeLa HSE-bla reporter, beta-lactamase ratio, 5 h; activation: at 62.6 µM (top of the series)
In short: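 HSE-bla HeLa cells (beta-lactamase reporter under heat shock response elements) were exposed to compounds for 5 h at 37 C, then loaded with LiveBLAzer B/G FRET substrate for 2.5 h at room temperature before fluorescence reading.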

[9] = molecular target: Peroxisome proliferator-activated receptor delta (Homo sapiens) (UniProt Q03181); experiment: qHTS assay to identify small molecule antagonists of the peroxisome proliferator-activated receptor delta (PPARd) signaling pathway (AID 743215; active = well fitted inhibition curve with a large enough effect in the signal ratio in the repeat runs, not every such curve was filed as active; inconclusive = weak or mixed curves, or effect the other way; inactive = no such curve, though single readings can be large or run the other way; the % refers to the signal ratio;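 note: cells stimulated with agonist L165041 at 300 nM final during compound exposure; % is set by controls: 0 for no effect and ±100 for the full control effect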); settings: HEK293H PPARd-UAS-bla, beta-lactamase FRET ratio, antagonist, 17 h; ratio activity, negative = inhibition: at 62 µM (top of the series) unless noted
In short: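 PPARd-bla HEK293H cells (UAS-bla reporter) preincubated 5 h, then given compound plus 300 nM final L165041 agonist for 17 h at 37 C. Beta-lactamase activity read by LiveBLAzer B/G FRET substrate fluorescence after 2 h at room temperature.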

[10] = qHTS assay for small molecule agonists of the antioxidant response element (ARE) signaling pathway - cell viability counter screen (AID 743203; calls by dose curve; note: % is set by controls: 0 for no effect and ±100 for the full control effect; nearly all actives have a fitted effect of over 55% in size)
In short: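 ARE-bla HepG2 cells were plated, rested 5 h at 37C/5% CO2, then exposed to compounds in DMSO for 16 h. Viability was read as CellTiter-Glo luminescence after 30 min at room temperature, in the same wells as the ARE screen.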

[11] = molecular target: Peroxisome proliferator-activated receptor delta (Homo sapiens) (UniProt Q03181); experiment: qHTS assay to identify small molecule agonists of the peroxisome proliferator-activated receptor delta (PPARd) signaling pathway (AID 743212; calls by dose curve; note: % is set by controls: 0 for no effect and ±100 for the full control effect); settings: HEK293H PPARd-UAS-bla, beta-lactamase FRET ratio, 17 h; activation: at 62.6 µM (top of the series) unless noted
In short: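 GeneBLAzer PPARd UAS-bla HEK293H cells (beta-lactamase reporter under UAS control), plated and rested 5 h at 37 C, then exposed to compounds in DMSO at 37 C; LiveBLAzer B/G FRET substrate added, 2 h room temperature, fluorescence read.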

[12] = molecular target: Bile acid receptor (Homo sapiens) (UniProt Q96RI1); experiment: qHTS assay to identify small molecule antagonists of the farnesoid-X-receptor (FXR) signaling pathway (AID 743217; active = well fitted inhibition curve with a large enough effect in the signal ratio in the repeat runs, not every such curve was filed as active; inconclusive = weak or mixed curves, or effect the other way; inactive = no such curve, though single readings can be large or run the other way; the % refers to the signal ratio; note: % is set by controls: 0 for no effect and ±100 for the full control effect); settings: HEK293T FXR-UAS-bla, beta-lactamase ratio, CDCA-stimulated, 16 h; activity change, negative = inhibition: at 62.6 µM (top of the series) unless noted
In short: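 FXR-UAS-bla HEK 293T cells (beta-lactamase reporter) given compound plus chenodeoxycholic acid (50 uM final), 16 h at 37C. LiveBLAzer B/G FRET substrate added for 2 h at room temperature; fluorescence read.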

[13] = qHTS assay to identify small molecule agonists of the farnesoid-X-receptor (FXR) signaling pathway - cell viability counter screen (AID 743218); settings: FXR-bla HEK293T viability, CellTiter-Glo luminescence, 16 h; viability change, negative = cytotoxic: at 62.6 µM (top of the series) unless noted; note: nearly all actives have a fitted effect of over 45% in size; note: potency is the fitted concentration of half-maximal effect
In short: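 FXR-UAS-bla HEK 293T cells exposed to compounds for 16 h at 37C. Cytotoxicity read in the same wells by CellTiter-Glo luminescence after 30 min at room temperature, following the beta-lactamase FRET read.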

[14] = molecular target: Vitamin D3 receptor (Homo sapiens) (UniProt P11473); experiment: qHTS assay to identify small molecule agonists of the vitamin D receptor (VDR) signaling pathway (AID 743222; calls by dose curve; note: % is set by controls: 0 for no effect and ±100 for the full control effect); settings: HEK293T VDR-UAS-bla, beta-lactamase FRET ratio, 16 h; activation: at 63.5 µM (top of the series) unless noted
In short: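 VDR-bla cells plated 4 h at 37 C, then exposed to compounds for 16 h at 37 C. Beta-lactamase reporter activity measured by fluorescence after 2 h room-temperature loading with LiveBLAzer B/G FRET substrate.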

[15] = qHTS assay to identify small molecule agonists of the vitamin D receptor (VDR) signaling pathway - cell viability counter screen (AID 743224); note: % is set by controls: 0 for no effect and ±100 for the full control effect; nearly all actives have a fitted effect of over 50% in size
In short: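 VDR-bla cells, 4 h after plating, exposed to compounds for 16 h at 37C; viability then read in the same wells as CellTiter-Glo luminescence after 30 min at room temperature, following the bla FRET read.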

[16] = qHTS assay to identify small molecule agonists of the peroxisome proliferator-activated receptor delta (PPARd) signaling pathway - cell viability counter screen (AID 743211); settings: PPARd-bla HEK293H viability, CellTiter-Glo luminescence, 17 h; activity change, negative = cytotoxicity: at 62.6 µM (top of the series) unless noted; note: % is set by controls: 0 for no effect and ±100 for the full control effect; nearly all actives have a fitted effect of over 55% in size
In short: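 PPARd-bla HEK293H cells (UAS-beta-lactamase reporter) were treated with compounds for 17 h at 37 C. Viability was then read in the same wells by CellTiter-Glo luminescence after 30 min at room temperature.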

[17] = qHTS assay to identify small molecule antagonists of the peroxisome proliferator-activated receptor delta (PPARd) signaling pathway - cell viability counter screen (AID 743213); settings: PPARd-bla HEK293H viability, CellTiter-Glo luminescence, 17 h; viability change, negative = cytotoxic: at 62 µM (top of the series) unless noted; note: nearly all actives have a fitted effect of over 50% in size; note: potency is the fitted concentration of half-maximal effect
In short: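 CellTiter-Glo was added to PPARd-bla HEK293H wells following 17 h compound treatment in the presence of 300 nM L165041. Luminescence was recorded after 30 min at room temperature.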
Tags give direction and shape of the fitted curve or compound fluorescence and quenching.

Sequence of UniProt P11473 (P11473 whole entry, looked up): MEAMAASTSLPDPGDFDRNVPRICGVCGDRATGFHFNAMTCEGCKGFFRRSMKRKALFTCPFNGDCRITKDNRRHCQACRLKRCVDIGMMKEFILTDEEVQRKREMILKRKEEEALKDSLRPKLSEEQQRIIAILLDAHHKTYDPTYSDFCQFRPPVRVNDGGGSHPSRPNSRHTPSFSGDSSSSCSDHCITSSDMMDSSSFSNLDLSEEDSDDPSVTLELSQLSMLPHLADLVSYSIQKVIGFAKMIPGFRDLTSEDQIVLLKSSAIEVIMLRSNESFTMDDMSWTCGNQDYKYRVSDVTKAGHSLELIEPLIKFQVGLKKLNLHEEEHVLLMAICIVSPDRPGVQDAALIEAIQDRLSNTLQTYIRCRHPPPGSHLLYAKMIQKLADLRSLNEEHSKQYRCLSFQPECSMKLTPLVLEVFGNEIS
Sequence of UniProt Q03181 (Q03181 whole entry, looked up): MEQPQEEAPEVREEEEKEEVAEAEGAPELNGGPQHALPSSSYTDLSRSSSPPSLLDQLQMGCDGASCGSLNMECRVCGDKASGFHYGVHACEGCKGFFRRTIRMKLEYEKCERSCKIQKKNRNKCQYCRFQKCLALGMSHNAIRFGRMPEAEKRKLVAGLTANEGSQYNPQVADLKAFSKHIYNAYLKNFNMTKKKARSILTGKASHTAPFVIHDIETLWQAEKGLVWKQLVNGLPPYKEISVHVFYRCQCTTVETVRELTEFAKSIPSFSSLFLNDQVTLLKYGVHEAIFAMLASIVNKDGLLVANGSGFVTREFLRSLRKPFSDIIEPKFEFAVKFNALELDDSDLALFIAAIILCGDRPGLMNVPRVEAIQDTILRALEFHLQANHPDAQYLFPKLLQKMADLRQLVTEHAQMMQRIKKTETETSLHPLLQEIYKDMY
Sequence of UniProt P37231 (P37231 whole entry, looked up): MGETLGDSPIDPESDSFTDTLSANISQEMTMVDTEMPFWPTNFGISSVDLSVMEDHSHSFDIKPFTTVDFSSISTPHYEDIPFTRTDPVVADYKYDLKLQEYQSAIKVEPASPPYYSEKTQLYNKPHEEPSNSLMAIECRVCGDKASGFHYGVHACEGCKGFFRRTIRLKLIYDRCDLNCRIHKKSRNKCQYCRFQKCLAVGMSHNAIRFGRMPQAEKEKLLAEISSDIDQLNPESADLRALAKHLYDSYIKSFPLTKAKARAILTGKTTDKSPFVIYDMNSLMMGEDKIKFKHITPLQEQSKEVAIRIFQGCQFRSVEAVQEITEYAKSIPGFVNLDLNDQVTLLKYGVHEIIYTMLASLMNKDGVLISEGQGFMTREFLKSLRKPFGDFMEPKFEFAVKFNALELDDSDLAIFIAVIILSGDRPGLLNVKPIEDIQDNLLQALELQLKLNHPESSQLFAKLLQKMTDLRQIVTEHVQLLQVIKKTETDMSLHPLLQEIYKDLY
Sequence of UniProt Q96RI1 (Q96RI1 whole entry, looked up): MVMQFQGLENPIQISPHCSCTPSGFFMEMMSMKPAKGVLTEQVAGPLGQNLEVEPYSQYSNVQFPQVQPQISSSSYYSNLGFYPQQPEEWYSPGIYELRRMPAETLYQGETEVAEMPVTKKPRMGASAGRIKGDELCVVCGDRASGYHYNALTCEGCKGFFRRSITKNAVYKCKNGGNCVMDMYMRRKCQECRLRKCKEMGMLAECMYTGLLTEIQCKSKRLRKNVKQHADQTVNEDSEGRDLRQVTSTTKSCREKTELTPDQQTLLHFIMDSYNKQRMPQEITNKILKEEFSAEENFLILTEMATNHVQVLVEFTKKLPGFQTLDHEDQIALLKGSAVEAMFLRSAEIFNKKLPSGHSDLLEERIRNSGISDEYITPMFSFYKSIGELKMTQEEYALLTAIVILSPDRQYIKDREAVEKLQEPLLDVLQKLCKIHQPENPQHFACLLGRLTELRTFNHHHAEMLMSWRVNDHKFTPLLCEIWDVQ

For CNC(=O)O/N=C(/CSC)C(C)(C)C, the Potency [1] was “inactive”, the Potency [2] was “inactive” and the Potency [3] was “inactive”.
With Cc1ccccc1 the Potency [4] was “inactive” and the Potency [3] was “inactive”.
With CCOP(O)OCC the ratio activity, negative = inhibition [5] was inconclusive: 14%, the Potency [6] was “inactive” and the Potency [3] was inconclusive: 1.38 µM [cytotoxic, partial curve, poor fit].
In the case of O=C(CBr)c1ccccc1, the activation [4] is reported as inconclusive: 16.2% [at 94.8 µM], the Potency [7] is reported as inconclusive: 55.3 µM [cytotoxic, single point] and the Potency [8] is reported as inconclusive: 55.3 µM [single point]. The Potency [9] was “inactive” and the Potency [3] was inconclusive: 62 µM [rising, partial curve, poor fit].
For CCC(COC(=O)c1cc(OC)c(OC)c(OC)c1)(c1ccccc1)N(C)C (configuration not stated), the Potency [4] was inconclusive: 4.22 µM [rising, partial curve], the Potency [10] was “inactive” and the ratio activity, negative = inhibition [9] was inconclusive: 30.3%. The activity change, negative = inhibition [2] was inconclusive: 16% and the Potency [3] was inconclusive: 6.01 µM [cytotoxic, partial curve, poor fit].
In the case of CCOP(=S)(OCC)Oc1ccc(Cl)cc1Cl, the Potency [1] is reported as inconclusive: 49 µM [cytotoxic, partial curve, poor fit], the activation [4] is reported as inconclusive: -2.27% and the Potency [11] is reported as “inactive”. For the same compound, the Potency [2] was “inactive” and the Potency [3] was “inactive”.
For C=CC(=O)OCCCCO, the Potency [4] was active: 3.86 µM, the Potency [7] was inconclusive: 30.9 µM [cytotoxic, partial curve, poor fit] and the Potency [8] was inconclusive: 38.9 µM [falling, partial curve]. The activation [11] was inconclusive: 10.4%, the Potency [12] was “inactive” and the Potency [3] was inconclusive: 54.9 µM.
In the case of Nc1ccc(-c2ccccc2)cc1, the Potency [1] is reported as inconclusive: 11.3 µM [rising, full curve, poor fit], the Potency [4] is reported as active: 27.3 µM and the activation [11] is reported as inconclusive: 0.359%. For the same compound, the Potency [13] was inconclusive: 0.389 µM [rising, full curve, poor fit], the activity change, negative = inhibition [2] was inconclusive: 1.73% and the Potency [3] was inconclusive: 56.5 µM [cytotoxic, partial curve, poor fit].
In the case of CC(=O)NC1CCSC1=O (configuration not stated), the Potency [1] is reported as inconclusive: 0.266 µM [cytotoxic, single point], the Potency [2] is reported as “inactive” and the Potency [6] is reported as “inactive”. The Potency [3] was inconclusive: 1.07 µM [cytotoxic, single point].
For Clc1cccc2ccccc12, the Potency [1] was “inactive”, the Potency [4] was “inactive” and the Potency [14] was “inactive”. For the same compound, the Potency [2] was inconclusive: 17.1 µM [activator, partial curve, poor fit] and the Potency [3] was inconclusive: 54 µM [rising, partial curve, poor fit].
In the case of CC(C)NC(C)C, the Potency [4] is reported as “inactive”, the Potency [9] is reported as “inactive” and the Potency [13] is reported as inconclusive: 26.6 µM [rising, partial curve, poor fit]. The Potency [15] was “inactive” and the Potency [3] was inconclusive: 54 µM [rising, partial curve, poor fit] and inconclusive: 26.8 µM [rising, partial curve, poor fit].
In the case of CCC(Br)(CC)C(=O)NC(N)=O, the activation [4] is reported as inconclusive: 13.4%, the Potency [16] is reported as “inactive” and the Potency [9] is reported as “inactive”. The Potency [2] was “inactive” and the Potency [3] was inconclusive: 21.9 µM [cytotoxic, partial curve, poor fit].
For N#CCNCC#N, the Potency [4] was “inactive”, the activity change, negative = inhibition [2] was inconclusive: 2.51% and the Potency [3] was “inactive”.
With CCOC(=O)CBr the Potency [4] was “inactive”, the Potency [11] was “inactive” and the Potency [13] was inconclusive: 39.1 µM [rising, partial curve, poor fit]. The Potency [15] was “inactive”, the Potency [6] was inconclusive: 196 nM [cytotoxic, single point] and the Potency [3] was inconclusive: 0.0247 µM [cytotoxic, full curve, poor fit].
With CCn1cc[n+](C)c1 the activation [4] was inconclusive: -7.83%, the Potency [17] was “inactive and inconclusive: 180 nM [cytotoxic, full curve, poor fit]” and the Potency [13] was “inactive”. For the same compound, the Potency [3] was inconclusive: 62.2 µM [rising, partial curve, poor fit].
